The campaign covered roughly 48,000 compounds. About 120 (0.25%) were called active. Another 4% or so got no clear call; they are omitted. Calls come from the whole dose curve; as a rule, active = well fitted activation curve with a large enough effect; inconclusive = small, poorly fitted or top-dose-only effect, or another doubt; inactive = no such curve, though single readings can be large or run the other way. The list shows a part of the results.
assay: Primary qHTS for Identification of Small Molecule Activators of Huntingtin-Antisense Promoter Activity; conditions: HEK293 HTT-AS promoter firefly luciferase reporter (activity 0% = vehicle and -100% = no light), 24 h; series mostly up to 57.5 µM; activity change, positive = activation: at the top concentration; note: nearly all actives have a fitted effect of over 55% in size
How it was run: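 Firefly luciferase signal from promoter-reporter HEK293 cells was scaled between vehicle (0%) and zero RLU (-100%). Compounds were tested at final concentrations of up to 57.5 uM over 24 h at 37 degrees C. PTC124 at 50 uM final served as control inhibitor.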

Structure (SMILES) | activity change, positive = activation
COc1ccc(NC(=O)CSC2=Nc3ccccc3C3=NC(CCC(=O)NCc4ccc(F)cc4)C(=O)N23)cc1Cl (centres undefined) | inactive: -23.8%
CCCCC(CC)CNC(=O)CN(C)S(=O)(=O)c1ccc2c(c1)c(=O)n(C)c(=O)n2C (centres undefined) | inactive: -19.6%
CCOC(=O)c1ccc(NC(=O)CC2Sc3ccc(C(F)(F)F)cc3NC2=O)cc1 (centres undefined) | inactive: -33.9%
Cc1nn(C)c2c1c(-c1ccccc1)cc(=O)n2Cc1ccccc1Cl | inactive: -19.1%
COc1cccc(N2CCN(C(=O)C3CCN(S(=O)(=O)c4cccc5nonc45)CC3)CC2)c1 | inactive: -22.4%
Cc1ccc(CN(C(=O)COc2ccc(Cl)cc2)c2ccccn2)o1 | inactive: -11.7%
Cc1cccc(-c2nnn3c2nc(NCCc2ccc(S(N)(=O)=O)cc2)c2ccccc23)c1 | inactive: -30.6%
COc1ccc(OC)c(NC(=O)CSc2cn(CC(=O)N3CCCCCC3)c3ccccc23)c1 | inactive: -34%
O=C(CS(=O)(=O)c1cccc2nsnc12)Nc1ccc(F)cc1 | inactive: -14.9%
COCCNC(=O)CSc1nc2cc3c(cc2c(=O)n1CCCC(=O)NCc1ccc(OC)cc1)OCO3 | inactive: -8.05%
COC(=O)c1cc(S(=O)(=O)NCC2CCN(Cc3ccc(F)cc3)CC2)c[nH]1 | inactive: -6.57%
COCCNC(=O)c1ccc2c(c1)N(Cc1cc(C)ccc1C)C(=O)c1ccccc1S2(=O)=O | inactive: -21.6%
COc1ccc(S(=O)(=O)N2CCN(c3ccc(Cl)c(Cl)c3)CC2)c2ccccc12 | inactive: -14.4%
CCSc1ncc(Cl)c(C(=O)N(Cc2ccc(N(C)C)cc2)Cc2ccco2)n1 | inactive: -41.3%
OCCNC1CCCc2c1[nH]c1ccc(-c3ccccc3)cc21 (centres undefined) | inactive: -4.87%
Cc1cc(NCc2ccccc2Cl)n2cnnc2n1 | inactive: -43.8%
Cc1ccc(NC(=O)CSc2nc3ccccc3nc2Cc2ccccc2)c(C)c1 | inactive: -6.15%
COc1ccc(S(=O)(=O)Nc2nnc(CC(C)C)s2)cc1 | inactive: -25.9%
O=C(Nc1ccc(N2CCN(c3ccc(F)cc3)CC2)c(C(=O)O)c1)c1ccccc1F | inactive: 2.8%
CC1=C(C(=O)Nc2cccnc2)C(c2ccccc2)n2nc(SCc3ccccc3Cl)nc2N1 (centres undefined) | inactive: -14.3%
CCOC(=O)c1ccc(NC(=O)CSc2nc3ccccc3c(=O)n2CCNC(C)=O)cc1 | inactive: -2.49%
CCc1ccc(NC(=O)CN2C(=O)C(c3ccc(F)cc3)=NC2(C)C)cc1 | inactive: -17.1%
Cc1ccc(CCNC(=O)Cn2ncc3c([nH]c4ccc(C)cc43)c2=O)cc1 | inactive: -12.7%
CCCCOc1ccc(Cn2c(=O)oc3ccc(C)cc32)cc1 | inactive: -21.2%
Cc1nc2nc(NCc3cccc(Cl)c3)[nH]n2c(=O)c1Cc1ccccc1 | inactive: 16%

Structure (SMILES) | activity change, positive = activation
COc1ccc(-c2cc3ccc(O)c(CN4CCCC(C)C4)c3oc2=O)cc1 (centres undefined) | inactive: -19.7%
COC(=O)c1ccc(Cn2c(SCc3ccccc3F)nc3ccncc32)cc1 | inactive: -9.81%
CCOc1ccc(CCNC(=O)Cn2c(=O)c3cccn3c3ccc(F)cc32)cc1OCC | inactive: -5.37%
COc1ccc(OCCn2c(C(C)Oc3ccccc3)nc3ccccc32)cc1 (centres undefined) | inactive: -20.1%
CC1C(=O)Nc2ccc(S(=O)(=O)NCc3ccc(N(C)C)cc3)cc2NC1=O (centres undefined) | inactive: -11.6%
Cc1ccc(Cl)cc1-n1ncc2c(NCc3ccc(F)cc3)ncnc21 | inactive: -28.5%
COc1cccc(C(=O)c2cn(CC(=O)Nc3cccc(C(F)(F)F)c3)c3nc(C)ccc3c2=O)c1 | inactive: -30.2%
CCN(CC)S(=O)(=O)c1ccc2c(c1)nc(CN(C)C(=O)Nc1cccc(Cl)c1)n2C | inactive: 0.308%
CCCN(CCC)C(=O)CN1C(=O)CSc2ccc(S(=O)(=O)N3CCC(C)CC3)cc21 | inactive: -26.2%
COc1ccc(Cn2c(CCC(=O)Nc3ccc(C)c(C)c3)nc3cccnc32)cc1 | inactive: -24.9%
CC(=O)N1CCc2cc(S(=O)(=O)NC(CC(C)C)C(=O)NCCc3ccc(C)cc3)ccc21 (centres undefined) | inactive: 18.9%
COc1ccc(CNC(=O)C2CCN(S(=O)(=O)c3ccc(F)cc3)CC2)cc1 | inactive: -26.2%
CSc1ncc(C(=O)Nc2cccc(C)c2C)c(-c2ccccc2)n1 | inactive: -18.7%
Cc1ccc(O)c2ncccc12 | inactive: -4.28%
COC(=O)c1ccc2c(c1)N(Cc1cc(C)ccc1C)C(=O)c1ccccc1S2 | inactive: -9.47%
CCN(c1ccccc1)S(=O)(=O)c1nnc(NC(=O)C(C)(C)C)s1 | inactive: -19.1%
CCN1CCc2nc3sc(C(=O)c4ccccc4)c(N)c3cc2C1 | inactive: 12.9%
CC(CNC(=O)c1ccc(CSc2nc3ccncc3n2Cc2ccc(F)cc2)cc1)c1ccccc1 (centres undefined) | inactive: -25.5%
CCC(C(=O)NCc1ccccc1OC)n1nc(C)n2c(cc3sccc32)c1=O (centres undefined) | inactive: -9.57%
CCOC(=O)c1c(S(=O)(=O)NCC(=O)Nc2ccc(C)c(Cl)c2)c(C)n(C)c1C | inactive: -16.7%
CSc1ncc(C(=O)NCc2ccccc2)c(-c2ccccc2)n1 | inactive: -21.1%
COc1ccc(NC(=O)C2CCCN2S(=O)(=O)c2cccc3cccnc23)cc1OC (centres undefined) | inactive: -11.2%
CC(C)Oc1ccc(CNC(=O)c2ccc(NC(=O)N3CCSc4ncccc43)cc2)cc1 | inactive: -26.9%
CCOc1ccc(C2c3[nH]c4ccccc4c3CCN2C(=O)Cc2cccc(OCC)c2OCC)cc1 (centres undefined) | inactive: -18.8%
